# PubChem BioAssay AID652104 (National Center for Advancing Translational Sciences (NCATS), 2013)
# Screen size: about 410,000 compounds; about 7,200 (1.8%) were called active. The inconclusive results got no clear call from the source; some entries with a clear call stand among them for comparison. Calls follow the shape of the dose curve; as a rule, active = well fitted activation curve with a large enough effect; inconclusive = small, poorly fitted or top-dose-only effect, or another doubt; inactive = no such curve, though single readings can be large or run the other way. Potencies of inconclusive entries are left out as doubtful fits.
# Assay: qHTS of TDP-43 Inhibitors; also: nearly all actives have a fitted effect of over 50% in size; as to growth rescue (activation): % of control where 0% means no effect
# Settings: TDP-43 expressing yeast growth rescue, BacTiter-Glo, 24 h; growth rescue (activation): at 46.1 µM (top of the series) unless noted
# In short: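 Galactose-induced TDP-43 yeast, OD600=0.02, compound pinned; 24 hr, 30 deg C; BacTiter-Glo luminescence for growth. Inhibitors of TDP-43 toxicity read as activators.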
# Potency is read from the fitted curve at half-maximal effect; tags tell the direction and shape of the fitted curve.
Structure (SMILES),Potency,growth rescue (activation)
O=C(NCCc1csc(-c2ccccc2)n1)c1c(F)cccc1Cl,active: 12.6 µM,
COc1cccc(C(=O)NCC(c2cccs2)N2CCc3ccccc32)c1 (stereo not drawn),"inconclusive [activator, single point]",
O=C(c1ccco1)N1CC2(CC(c3ccc(Cl)cc3)=NO2)CN1Cc1ccc(Br)cc1 (stereo not drawn),active: 31.6 µM,
CC(C)(C)n1nnnc1C(c1ccccc1)N1CCN(c2c(Cl)cncc2Cl)CC1 (stereo not drawn),"inconclusive [activator, partial curve]",
CCN1CCCC1CNS(=O)(=O)c1ccc(Br)cc1 (stereo not drawn),,inactive: 5.94%
CC(C)c1nc(N2CCN(C(=O)c3ccco3)CC2)c2c3c(sc2n1)CCCC3,"inconclusive [activator, single point]",
N#Cc1cnn2c(N)c(-c3ccc(Cl)cc3)cnc12,"inconclusive [activator, partial curve]",
CC1CCN(S(=O)(=O)c2ccc3c(c2)N(CC(=O)NC(C)c2ccccc2)C(=O)CS3)CC1 (stereo not drawn),,inactive: 9.91%
CCN(C(=O)COC(=O)c1cc(-c2ccccc2)nn1-c1ccccc1)C1CCS(=O)(=O)C1 (stereo not drawn),"inconclusive [activator, partial curve]",
Oc1ccc(Cl)cc1Cc1cc(Cl)ccc1O,,inconclusive: -91.8% [activator]
O=c1cc(CNc2cc(C(F)(F)F)cc(C(F)(F)F)c2)nc2sccn12,active: 17.8 µM,
CCCCC(=O)N/N=C(/C)C1=C(C)C(C)(C)OC1=O,"inconclusive [activator, partial curve]",
CC(C)(C)NC(=O)C(c1ccccc1F)n1c(=O)c(-c2cc3ccccc3[nH]2)nc2ccccc21 (stereo not drawn),"inconclusive [activator, partial curve]",
CCN(CC)C(=O)Oc1ccc(Br)cc1C(=O)Nc1ccc(F)cc1F,,inactive: 17.5%
COc1ccc(C2=NN(C(C#N)c3ccc(OC)c(OC)c3)C(c3ccccc3)C2)cc1 (stereo not drawn),"inconclusive [activator, single point]",
COCCN(C(=O)Nc1ccc(F)cc1F)c1nc2ccccc2s1,"inconclusive [activator, single point]",
COc1ccc(CN2C(=O)c3cccc4cccc(c34)C2c2nc3ccccc3[nH]2)cc1 (stereo not drawn),,inactive: -13.5%
COC(=O)c1sccc1N/N=C/c1ccc(OC)c(OC)c1OC,"inconclusive [activator, single point]",
O=C1Nc2ccc(C(=O)O)c(O)c2C1=O,,inactive: -15.2%
CC(=O)c1ccc(NC(=O)c2nc3ccccc3nc2N2CCCCC2)cc1,"inconclusive [activator, single point]",
Cc1ccc(NC(=O)CCSc2nnnn2-c2ccc3c(c2)OCO3)cc1C,active: 17.8 µM,
Cc1noc(NC(=O)c2ccccc2)c1C#N,,inactive: 12.9%
CCC1C(c2ccccc2)=CCC(C(=O)O)C1C (stereo not drawn),,inconclusive: 90.9% [activator]
CCOc1ccc(NC(=O)c2cnc3scc(C)n3c2=O)cc1,"inconclusive [activator, partial curve]",

Structure (SMILES),Potency,growth rescue (activation)
COc1ccccc1-n1c(SCC(=O)c2ccc(O)cc2O)nc2cc([N+](=O)[O-])ccc21,"inconclusive [activator, single point]",
O=C(Nc1ccc(CSc2ccccc2)cc1)c1ccc(CN2CCOCC2)cc1,"inconclusive [activator, partial curve]",
CCOc1ccc(CC(=O)Nc2nccs2)cc1,"inconclusive [activator, partial curve]",
O=C(COC(=O)/C=C/c1ccco1)NCc1ccc2c(c1)OCO2,active: 15.8 µM,
COc1cc(Cl)c(C)cc1NC(=O)C1CCN(c2nc3ccccc3n3cccc23)CC1,,inactive: 3.33%
CSc1ccc(S(=O)(=O)NC2CC3CCC2C3)cc1 (stereo not drawn),"inconclusive [activator, full curve, poor fit]",
Cc1ccc(C(=O)c2cn(Cc3ccc(Cl)cc3)c3nc(C)ccc3c2=O)cc1,"inconclusive [activator, partial curve]",
COc1ccc(C2=CC(=O)C[C@H](c3ccc(Cl)cc3)C2)cc1,"inconclusive [activator, single point]",
CCC(C)NC(=O)c1cn(CCOC)c(=O)c2c1c1ccccc1n2C (stereo not drawn),,inactive: -4.99%
Cc1ccc(OCc2nc(-c3ccc(C(=O)NCc4ccc(OC(C)C)cc4)cc3)oc2C)cc1,,inactive: 17.2%
CC(OC(=O)COc1ccc(Nc2ccccc2)cc1)C(=O)N(C)c1ccccc1 (stereo not drawn),,inactive: 17.9%
O=C(Nc1ccc(Br)cc1)C1CCCN1S(=O)(=O)c1ccc(F)cc1 (stereo not drawn),active: 22.4 µM,
CCOC(=O)C1(C)CCCN(C(=O)COc2ccccc2)C1 (stereo not drawn),,inactive: 0%
CC1CCN(c2ccc3c(c2)S(=O)(=O)c2cc(C(=O)O)ccc2C3=O)CC1,"inconclusive [activator, full curve, poor fit]",
Cc1ccc2oc(=O)c(S(=O)(=O)c3ccc(C(C)(C)C)cc3)cc2c1,,inactive: -2.7%
Cc1cc(C)nc(NC(=NCCc2c[nH]c3ccccc23)NC(=O)Nc2ccc(Cl)cc2)n1,active: 22.4 µM,
CN(C)c1ccc(CNC(=O)CN2CCSc3ccc(S(=O)(=O)N(C)C)cc32)cc1,,inactive: 25.2%
COc1cccc(NC(=S)NCc2ccc(F)cc2)c1,"inconclusive [activator, single point]",
Cc1cc(NC(=O)CN2C(=O)c3cccnc3Sc3ccccc32)ccc1Br,,inactive: 9.46%
O=C1Nc2ccccc2SC1c1ccccc1Cl (stereo not drawn),"inconclusive [activator, single point]",
COc1cc(OC)c(C(=O)/C=C/c2ccccc2)c(O)c1O,active: 12.6 µM,
CCN1CCN(c2ncc3c(n2)CC(c2ccccc2O)CC3=O)CC1 (stereo not drawn),,inactive: 6.42%
CCc1ccc(C(=O)c2cn(Cc3ccc(F)cc3)c3cc(OC)c(OC)cc3c2=O)cc1,"inconclusive [activator, single point]",
CCn1c(NC(=O)c2ccccc2)nc2ccccc21,"inconclusive [activator, single point]",
